From patent publication US20260248802A1, “DOSAGE OF BALOXAVIR MARBOXIL FOR PEDIATRIC PATIENTS” (Hoffmann-La Roche Inc., priority 2019, published 2026)
“And” between values parts separate entries of the source, which are not always exact repeats. Equal entries are not always repeated. Where two headings read alike, the source gives them in different places.

Tests used:
influenza = experiment: miniSTONE-2 phase III study in children 1 to <12 years: efficacy and virology; conditions: by virus titer, same regimens
[1] = pediatric Japanese patients; considered not related to study drug; cited from earlier work
[2] = Japanese paediatrics
[3] = Child weighing 24 kg; cited from earlier work
[4] = non-Asian adult patients, 40 mg, T0831 study; cited from earlier work
[5] = Population PK model in adults and adolescents with influenza (T0821 and T0831; report S-033188-CB-272-N); assay type: in vivo, human
[6] = Sparse PK data in Asian pediatric study 1602T0833 (patients weighing less than 20 kg); assay type: in vivo, human; conditions: 1 mg/kg; Asian pediatrics weighing less than 20 kg
[7] = Anderson 2011; cited from earlier work

COC(=O)OCOc1c2n(ccc1=O)N([C@@H]1c3ccccc3SCc3c1ccc(F)c3F)[C@@H]1COCCN1C2=O [baloxavir marboxil]
median time to cessation of viral shedding (influenza): 24.2 h
most common adverse event [1]: vomiting

O=C1c2c(O)c(=O)ccn2N([C@@H]2c3ccccc3SCc3c2ccc(F)c3F)[C@@H]2COCCN12 [baloxavir]
ALAG, absorption lag time (Estimate) [2]: 0.47 h
Ka, first-order rate of absorption (Estimate) [2]: 0.702 h⁻¹
CL/F, apparent total clearance (Estimate) ([2]; body weight 20.7): 2.72 L/h
Q/F, apparent inter-compartmental clearance (Estimate) ([2]; body weight 20.7): 1.06 L/h
Vc/F, apparent volume of central compartment (Estimate) ([2]; body weight 20.7): 117 L
Vp/F, apparent volume of peripheral compartment (Estimate) ([2]; body weight 20.7): 67.1 L
Population median oral clearance [3]: about 3 L/h
AUC [4]: 3371 ng·h/mL
Cmax [4]: 56.9 ng/mL
ALAG, absorption lag time (Estimate) ([5]; adults): 0.32 h
Q/F, apparent inter-compartmental clearance (Estimate) ([5]; adults, body weight 64.8): 6.27 L/h
Vp/F, apparent volume of peripheral compartment (Estimate) ([5]; adults, body weight 64.8): 212 L
Vc/F, apparent volume of central compartment (Estimate) ([5]; adults, body weight 64.8, Asian): 333 L
Ka, first-order rate of absorption (Estimate) ([5]; adults, male): 1.10 h⁻¹
CL/F, apparent total clearance (Estimate) ([5]; adults, typical value at body weight 64.8, Asian, ALT 17): 5.4 L/h and 5.40 L/h
CL/F higher in non-Japanese at the same bodyweight ([5]; non-Japanese versus Japanese, on average): 1.7 fold
drug concentrations briefly after dosing (mean) [6]: ~100 ng/mL

CN1CC[C@]23c4c5ccc(O)c4O[C@H]2[C@@H](O)C=C[C@H]3[C@H]1C5 [morphine]
γ, hill coefficient [7]: 3.92

CCOC(=O)C1=C[C@@H](OC(CC)CC)[C@H](NC(C)=O)[C@@H](N)C1 [oseltamivir, reference compound]
median time to cessation of viral shedding (influenza): 75.8 h and 76 h
